We go through 44 compounds from PMC4336329 (PLoS ONE, 2015).

Hit rate of the full screen: of about 310,000 compounds, about 2,200 (0.71%) showed an effect of 50% or more. The effect is printed as a negative number. The list shows a part of the results.

Chain of human ether-à-go-go-related gene (hERG) potassium channel (Q12809 whole entry, looked up): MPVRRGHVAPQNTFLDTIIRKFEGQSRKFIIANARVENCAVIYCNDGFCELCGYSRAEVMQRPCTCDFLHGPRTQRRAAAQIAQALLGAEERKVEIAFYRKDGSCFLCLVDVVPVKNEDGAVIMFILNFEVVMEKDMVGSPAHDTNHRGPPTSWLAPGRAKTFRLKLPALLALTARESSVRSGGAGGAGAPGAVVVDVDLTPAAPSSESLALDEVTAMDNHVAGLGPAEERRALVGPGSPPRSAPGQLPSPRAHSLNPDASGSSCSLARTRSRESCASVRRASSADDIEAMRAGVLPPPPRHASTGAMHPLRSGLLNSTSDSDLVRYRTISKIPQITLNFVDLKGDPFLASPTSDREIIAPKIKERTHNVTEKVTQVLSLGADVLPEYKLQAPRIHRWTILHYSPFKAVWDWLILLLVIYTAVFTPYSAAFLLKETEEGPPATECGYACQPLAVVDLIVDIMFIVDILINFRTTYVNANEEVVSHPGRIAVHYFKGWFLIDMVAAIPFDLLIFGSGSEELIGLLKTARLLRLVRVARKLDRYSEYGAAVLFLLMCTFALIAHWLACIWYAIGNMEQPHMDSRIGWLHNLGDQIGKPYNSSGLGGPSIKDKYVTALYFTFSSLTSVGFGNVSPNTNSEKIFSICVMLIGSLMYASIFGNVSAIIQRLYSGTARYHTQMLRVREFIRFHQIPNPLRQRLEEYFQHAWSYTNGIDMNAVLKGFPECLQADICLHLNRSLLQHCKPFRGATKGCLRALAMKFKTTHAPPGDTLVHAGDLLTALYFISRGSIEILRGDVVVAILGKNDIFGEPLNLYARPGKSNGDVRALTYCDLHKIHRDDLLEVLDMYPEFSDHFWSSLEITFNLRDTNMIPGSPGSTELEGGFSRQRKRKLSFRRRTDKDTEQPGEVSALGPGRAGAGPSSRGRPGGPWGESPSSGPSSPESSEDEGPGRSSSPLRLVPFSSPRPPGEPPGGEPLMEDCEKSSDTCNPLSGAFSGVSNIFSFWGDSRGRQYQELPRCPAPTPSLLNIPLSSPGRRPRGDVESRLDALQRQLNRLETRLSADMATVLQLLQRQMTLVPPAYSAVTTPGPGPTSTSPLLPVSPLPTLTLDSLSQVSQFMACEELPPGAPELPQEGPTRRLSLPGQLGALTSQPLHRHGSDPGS

The assay has as its target human ether-à-go-go-related gene (hERG) potassium channel (human, UniProt Q12809). Nature of the assay: primary screen, population patch clamp on CHO cells stably expressing hERG.
With `Cn1cc(Cl)nc1C(O)c1ccccc1` (centres unmarked), the “hERG current change (%, negative = inhibition) at 1uM” value is reported as 8.19%.
The result for `C(=C\c1ccccc1)/C=N/Nc1nc2ccccc2s1` reads -5.49%; that for `O=C1Nc2ccccc2N(O)N1c1ccc(S(=O)(=O)N2CCOCC2)cc1`, 3.34%.
The result for `Cc1cc(NS(=O)(=O)c2ccc(NC(=O)C(C(C)C)N3C(=O)c4ccccc4C3=O)cc2)nc(C)n1` (centres unmarked) reads 9.77%; that for `CCOC(=O)C1CCN(c2c(Nc3ccc4c(c3)OCCO4)c(=O)c2=O)CC1`, 9.58%.
Regarding `Cc1cc(/C=C2\SC(=Nc3ccccc3)NC2=O)c(C)n1-c1ccc(S(N)(=O)=O)cc1`, the “hERG current change (%, negative = inhibition) at 1uM” value is given as 11.8%.
Take `CCCOP(=O)(OCCC)c1c([N+](=O)[O-])cc(C(F)(F)F)cc1[N+](=O)[O-]`: the “hERG current change (%, negative = inhibition) at 1uM” value was 4.47%.
The result for `CC(CCc1ccccc1)NC(=O)C1CCN(S(=O)(=O)N2CCOCC2)CC1` (centres unmarked) reads 1.82%; that for `CC(OC(=O)CCCSc1nc2ccccc2s1)C(=O)NC(N)=O` (centres unmarked), 9.9%; that for `CN(C)NC(=S)Nc1ccc(Cl)cc1`, 1.6%.
Regarding `CC1(c2ccc(OCC(N)=O)cc2)NC(=O)NC1=O` (centres unmarked), the “hERG current change (%, negative = inhibition) at 1uM” value is on record as 12.1%.
The result for `Cn1c(=O)c2c(ncn2CCC(=O)N/N=C/c2ccncc2)n(C)c1=O` reads 10.2%; that for `COc1ccc(OC)c(N(CC(=O)NCc2ccccc2)S(=O)(=O)c2ccc(OC)c(OC)c2)c1`, 20.6%; that for `CCOP(=O)(OCC)C(NC(=O)c1cccs1)C(F)(F)F` (centres unmarked), 13%.
The result for `CSC1=C(C#N)C(c2ccc(Cl)cc2)C2=C(CC(C)(C)CC2=O)N1` (centres unmarked) reads -6.41%; that for `COc1cccc(C(=O)/C=C/c2ccc(SC)cc2)c1`, 1.35%.
With `CCOc1ccc(NC(=O)CN(C)C(=O)c2cc(C)oc2C)cc1OCC`, the “hERG current change (%, negative = inhibition) at 1uM” value worked out at 6.57%.
The result for `CCOC(=O)c1sc(NC(=O)CN2CCN(c3ccc(OC)cc3)CC2)nc1C` reads 2.51%; that for `Cc1ccc(S(=O)(=O)N(CC(=O)NCc2ccncc2)C2CCCCC2)cc1`, -25.2%; that for `Cc1cccc(NC(=O)CS(=O)(=O)c2cn(C)c3ccccc23)c1C`, 1.32%.
As for `CCc1ccccc1NC(=O)C1C2C=CC(O2)C1C(=O)O` (centres unmarked), the “hERG current change (%, negative = inhibition) at 1uM” value came to 14.9%.
As to `Cc1ccc(SCC(=O)Nc2ccc3c(c2)C(=O)N(C)C3=O)cc1`, the “hERG current change (%, negative = inhibition) at 1uM” value is 11.9%.
On to `Nc1c(C(=O)Nc2cccc(Cl)c2Cl)sc2nc(-c3cccnc3)ccc12`, for which the “hERG current change (%, negative = inhibition) at 1uM” value amounted to 2.9%.
The result for `COc1cccc(NC(=O)Nc2nnc(CC(=O)Nc3ccccc3)s2)c1` reads 6.56%.
The result for `Cc1cc(C)cc(NC(=O)Nc2ccccc2N2CCCCC2)c1` reads 13.8%.
The result for `C/C(=N\NC(=O)c1nnn(-c2nonc2N)c1CN1CCC(C)CC1)c1cccc(Br)c1` reads 18%; that for `CCC(C)(C)NC(=O)C(c1ccccc1F)N(C(=O)c1ccn[nH]1)c1ccccc1` (centres unmarked), 3.87%; that for `CCC(C)NC(=O)c1ccccc1-c1ccccc1C(=O)NC(C)CC` (centres unmarked), 4.92%.
For `COc1cccc(C(=O)NCCSc2ccc(C)cc2)c1`, the “hERG current change (%, negative = inhibition) at 1uM” value came to 0.173%.
`CCOCCCNC(=O)c1c[nH]c2ccc(C)cc2c1=O`: the “hERG current change (%, negative = inhibition) at 1uM” value turned out to be 14%.
The result for `Cc1ccc(C(=O)/C=C/c2ccc(-c3ccc(C)cc3)o2)cc1` reads 4.98%.
The result for `CCn1c(COc2cccc(C)c2)nnc1SCC(=O)NC1CCCC1` reads 11.6%; that for `NC(=O)CN(c1ccc(Cl)cc1)S(=O)(=O)c1ccccc1`, 3.68%; that for `COc1ccccc1OCc1ccc(C(=O)N(C)c2ccccc2)o1`, 12.1%.
The result for `COC(=O)c1cn(C(=O)c2cc(C)cc(C)c2)c2ccccc12` reads 35.2%.
`COc1ccc(-n2ncc3c(NC(C)C)ncnc32)cc1`: the “hERG current change (%, negative = inhibition) at 1uM” value is reported as 7.98%.
The result for `Cc1ccn2cc(C(=O)NC3CCN(Cc4ccccc4)CC3)nc2c1` reads -10.6%.
Regarding `COc1cc(C(=O)NCC(=O)NC(C)CCc2ccccc2)cc(OC)c1OC` (centres unmarked), the “hERG current change (%, negative = inhibition) at 1uM” value was 2.59%.
As for `CC(NC(=O)c1cc(F)c(F)cc1Cl)C1CC2CCC1C2` (centres unmarked), the “hERG current change (%, negative = inhibition) at 1uM” value was found to be 10.7%.
With `O=C1NC(=O)N(Cc2ccccc2)C(=O)/C1=C\C=C\c1ccco1`, the “hERG current change (%, negative = inhibition) at 1uM” value was 9.06%.
The result for `CCCS(=O)(=O)N1CCN(C(=O)c2ccco2)CC1` reads 23.7%; that for `Fc1ccc(Cn2c(-c3cscn3)nc3ccccc32)c(Cl)c1`, 15%.
The result for `O=C(O)c1ccc(-c2nnc(-c3ccc([N+](=O)[O-])cc3)o2)cc1` reads 15.8%; that for `Cc1cc(C)nc(-n2nc(C)cc2NC(=O)CN2CCc3ccccc3C2)n1`, -26.4%.
